What is called IC50 is the concentration at which inhibition is half-maximal.

SMILES strings stand for the structures. Where two headings read alike, the source gives them in different places.

For four compounds, IC50 results are on record in patent US10214765B2, “Cell-permeable probes for identification and imaging of sialidases” (Academina Sinica, priority 2012, dated 2019).

Common to all, as to assay: biochemical
The target in assay [1] is Neu3 (recombinant sialidase from human) (Homo sapiens, UniProt Q9UQ49).
Sequence of UniProt Q9UQ49 (Q9UQ49 whole entry): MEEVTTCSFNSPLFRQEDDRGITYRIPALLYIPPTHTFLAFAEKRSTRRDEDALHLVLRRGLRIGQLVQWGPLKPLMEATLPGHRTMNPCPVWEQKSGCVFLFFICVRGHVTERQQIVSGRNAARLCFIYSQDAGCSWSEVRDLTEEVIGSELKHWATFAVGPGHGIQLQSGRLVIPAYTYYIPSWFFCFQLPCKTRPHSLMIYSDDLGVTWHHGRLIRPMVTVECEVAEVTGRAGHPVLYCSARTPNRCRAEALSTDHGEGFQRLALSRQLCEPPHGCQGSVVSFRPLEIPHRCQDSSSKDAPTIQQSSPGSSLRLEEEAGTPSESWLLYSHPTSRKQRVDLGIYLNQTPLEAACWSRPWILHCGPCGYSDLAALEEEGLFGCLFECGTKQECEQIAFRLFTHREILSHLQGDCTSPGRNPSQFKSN
Assay [2] addresses nanC (recombinant sialidase of S. pneumoniae) (Streptococcus pneumoniae, UniProt A0A0H2UQE4).
The target of assay [3] is Neu4 (recombinant sialidase from human) (Homo sapiens, UniProt Q8WWR8).
Assay [4] has as its target Neu1 (recombinant sialidase from human) (Homo sapiens, UniProt Q99519).
Assay [5] concerns the target nanB (recombinant sialidase of S. pneumoniae) (Streptococcus pneumoniae serotype 4, UniProt Q54727).
Assay [6] deals with nanA (recombinant sialidase of S. pneumoniae) (Streptococcus pneumoniae, UniProt P62575).

Consider `CC(=O)N[C@H]1[C@H]([C@H](O)[C@H](O)CO)OC(C(=O)O)=C[C@@H]1O` [DANA, 2,3-didehydro-2-deoxy-N-acetylneuraminic acid], for which the concentration for half-maximal inhibition (IC50) in assay [1] is 2.4 ± 0.6 µM; in assay [2] (nanC, MUNANA substrate) it was above 100 µM.

With `C#CCCC(=O)NC1C(O)C(F)C(F)(C(=O)O)OC1[C@H](O)[C@H](O)CO` (stereo partly drawn) [DFSA-5-yne, 5-(Pent-4-ynamido)-2,3,5-trideoxy-3-fluoro-D-erythro-β-L-manno-non-2-ulopyranosylonic fluoride], the IC50 in assay [1] worked out at 5.3 ± 3.2 µM; in assay [3], 59.8 ± 1.3 µM; in assay [4], 10.4 ± 2.3 µM; in assay [5] it was 82 ± 22 µM; in assay [6], 0.3 ± 0.1 µM; in assay [2] it was 42.8 ± 17.5 µM.

With `CCOC(=O)C1=C[C@@H](OC(CC)CC)[C@H](NC(C)=O)[C@@H](N)C1` [Oseltamivir], the IC50 in assay [1] is above 100 µM; in assay [3], above 100 µM; in assay [4], above 100 µM; in assay [5], 14.2 ± 6.2 µM; in assay [6] it was 3.8 ± 2.6 µM; in assay [2], above 100 µM.

In the case of `CC(=O)N[C@H]1[C@H]([C@H](O)[C@H](O)CO)OC(C(=O)O)=C[C@@H]1N=C(N)N` [Zanamivir], the 50% inhibitory concentration (IC50) in assay [4], in assay [5], in assay [6] and in assay [2] was above 100 µM throughout.
